According to PubChem BioAssay AID485281 (National Center for Advancing Translational Sciences (NCATS), 2010):
The whole screen tested about 350,000 compounds, of which about 260 (0.074%) were called active. This list was built around the results that the source calls inconclusive (neither active nor inactive); the mix of calls is not that of the screen. Calls follow the shape of the dose curve; as a rule, active = well fitted inhibition curve with a large enough effect; inconclusive = small, poorly fitted or top-dose-only effect; inactive = no such curve, though single readings can be large or run the other way. A potency beside an inconclusive call is a rough fit, not a confirmed value.

What follows are compounds tested against Ferritin light chain (Equus caballus) (UniProt P02791) (assay: qHTS Assay for Identification of Novel General Anesthetics). Conditions: apoferritin/1-aminoanthracene competitive binding, fluorescence; series mostly up to 77.5 µM.
Summary of the method: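 Horse-spleen apoferritin (10 uM) in 50% saturated 1-aminoanthracene in PBS was incubated 10 min at room temperature with compound. Fluorescence (ex 380, em 535 nm) was normalized to free and bound 1-AMA, with concentration-response fitted by a four-parameter Hill equation.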
Also: nearly all actives have a fitted effect of over 20% in size.
Potency is read from the fitted curve at half-maximal effect; tags tell the direction and shape of the fitted curve.

Chain of UniProt P02791 (P02791 whole entry, looked up): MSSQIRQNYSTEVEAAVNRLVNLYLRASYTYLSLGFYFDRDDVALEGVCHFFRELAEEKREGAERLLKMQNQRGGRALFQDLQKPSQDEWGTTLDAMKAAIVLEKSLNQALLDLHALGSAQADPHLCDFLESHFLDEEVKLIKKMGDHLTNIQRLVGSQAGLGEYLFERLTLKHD

Row | SMILES | Potency
1 | Cc1ccc(CCNC(=O)NCc2noc3ccc(C)cc23)cc1 | inconclusive: 50.1 µM [inhibitor, single point]
2 | CC1CCC2(CC1)NC(=O)N(Cc1nc(-c3ccccc3)no1)C2=O (stereo unspecified) | inconclusive: 7.08 µM [inhibitor, full curve]
3 | O=C(CNC(=O)c1ccco1)OCC(=O)c1ccc(Cl)cc1 | inconclusive: 35.5 µM [inhibitor, single point]
4 | CCOc1cc2[nH]c(=O)n(CCC(=O)N3CCN(c4cccc(Cl)c4)CC3)c(=O)c2cc1OCC | inconclusive: 7.94 µM [inhibitor, partial curve]
5 | O=C(NNc1nc2ccccc2nc1C(F)(F)F)c1ccccc1 | inconclusive: 35.5 µM [inhibitor, single point]
6 | CC1(C)O[C@@H]2C[C@H]3[C@@H]4CCC5=CC(=O)C=C[C@]5(C)[C@@]4(F)[C@@H](O)C[C@]3(C)[C@]2(C(=O)CO)O1 | inactive
7 | C=C(C)CN1C(=O)c2ccccc2C1=O | inconclusive: 35.5 µM [inhibitor, partial curve]
8 | COc1ccc(C2=NOC(C(=O)NCc3ccc(F)cc3)C2)cc1OC (stereo unspecified) | inactive
9 | COc1cc(Nc2nc(-c3ccccc3)c3cc(C)ccc3n2)cc(OC)c1OC | inconclusive: 10 µM [inhibitor, full curve]
10 | CCCc1c(C)nc2ccc(OC)cc2c1SCCC(=O)O | inactive
11 | COc1ccc(S(=O)(=O)NCCc2ccccc2)cc1OC | inconclusive: 15.8 µM [inhibitor, partial curve]
12 | O=C(NC1CCOC1)c1cc(COc2cccc(C(F)(F)F)c2)on1 (stereo unspecified) | inconclusive: 35.5 µM [inhibitor, partial curve]
13 | CC(C)N(Cc1ccccc1)C(=O)COC(=O)c1ccc2c(c1)OCCO2 | inconclusive: 22.4 µM [inhibitor, partial curve]
14 | CCOC(=O)C1=C(c2ccccc2)N=c2s/c(=C\c3ccco3)c(=O)n2C1c1cccs1 (stereo unspecified) | inconclusive: 17.8 µM [inhibitor, partial curve]
15 | O=C(CSc1ncc(-c2ccc(F)cc2)[nH]1)Nc1cccc(O)c1 | inconclusive: 20 µM [inhibitor, partial curve]
16 | CC(Oc1ccc(Cl)cc1Cl)C(=O)OCn1nnc2ccccc2c1=O (stereo unspecified) | inconclusive: 25.1 µM [inhibitor, partial curve]
17 | c1ccc(CNc2ccccn2)cc1 | inactive
18 | Cc1cccc(/C=c2\s/c(=C\C(=O)C(C)(C)C)[nH]c2=O)c1 | inconclusive: 2 µM [inhibitor, full curve]
19 | CCC(C)c1ccc(NC(=O)Nc2cccnc2)cc1 (stereo unspecified) | inconclusive: 15.8 µM [inhibitor, partial curve]
20 | O=C(NCc1ccc2c(c1)OCO2)c1ccc(CN2CCc3ccccc3C2)cc1 | inconclusive: 3.55 µM [inhibitor, partial curve]
21 | CCCCCCCCCCCCCCCCCCO | inconclusive: 39.8 µM [inhibitor, single point]
22 | COc1ccc(NC(=O)c2ccco2)c([N+](=O)[O-])c1 | inactive
23 | Cc1cc(=O)nc2c3ccccc3n(CC(=O)Nc3ccccc3Br)n12 | inactive
24 | O=[N+]([O-])c1ccc(Cl)c(CN2CCCCCC2)c1 | inconclusive: 25.1 µM [inhibitor, partial curve]

Row | SMILES | Potency
25 | Cc1ccc([N+](=O)[O-])cc1NC(=O)Nc1ccc(S(N)(=O)=O)cc1 | inactive
26 | CCOc1ccc2c(c1)c(=O)c(S(=O)(=O)c1ccc(C)cc1)cn2CC(=O)Nc1ccc(C)cc1 | inconclusive: 5.01 µM [inhibitor, partial curve]
27 | O=C(c1cc(-c2ccc(Br)cc2)n[nH]1)N1CCN(C(=O)c2ccccc2Br)CC1 | inactive
28 | COc1ccc(-n2c(SCc3nc(-c4ccc(C)cc4)no3)nnc2-c2ccncc2)cc1 | inconclusive: 25.1 µM [inhibitor, partial curve]
29 | CCOC(=O)CC(NC(=O)c1cc2cccc(OC)c2oc1=O)c1ccc(OC)cc1 (stereo unspecified) | inconclusive: 31.6 µM [inhibitor, partial curve]
30 | CC1CCCC(NC(=O)COC(=O)Cc2ccsc2)C1C (stereo unspecified) | inconclusive: 39.8 µM [inhibitor, partial curve]
31 | O=c1/c(=C\c2cc([N+](=O)[O-])cc([N+](=O)[O-])c2O)sc2nc3ccccc3n12 | inconclusive: 35.5 µM [inhibitor, single point]
32 | O=C(Nc1ccccc1F)c1cnccn1 | inactive
33 | Cc1cccc(NC(=O)C2CCC(CNS(=O)(=O)c3ccc4c(c3)CCCC(=O)N4)CC2)c1C (stereo unspecified) | inactive
34 | CCN1CCOC(=O)C1CC(=O)Nc1ccccc1C(F)(F)F (stereo unspecified) | inactive
35 | O=C(c1csc2ccccc12)N1CCCCCC1 | inconclusive: 11.2 µM [inhibitor, partial curve]
36 | CC1CC(C)CN(C(=S)Nc2ccc3nc4n(c(=O)c3c2)CCCCC4)C1 (stereo unspecified) | inconclusive: 35.5 µM [inhibitor, partial curve]
37 | COc1cccc(/C=C/C(=O)OCC(=O)Nc2cccc(S(=O)(=O)N(C)C)c2)c1 | inconclusive: 12.6 µM [inhibitor, partial curve]
38 | CCOC(=O)c1cnc(-n2nc(C)cc2C)nc1NCc1ccccc1 | inconclusive: 28.2 µM [inhibitor, partial curve]
39 | COc1ccccc1Nc1nnc(SCC(=O)N2CCCC2=O)s1 | inconclusive: 39.8 µM [inhibitor, single point]
40 | Cc1cc(NC(=O)C(Cl)c2ccccc2)no1 (stereo unspecified) | inconclusive: 28.2 µM [inhibitor, partial curve]
41 | O=C1c2ccccc2S(=O)(=O)N1CC1CC(c2ccccc2)=NO1 (stereo unspecified) | inconclusive: 28.2 µM [inhibitor, single point]
42 | CCOc1cc(CN2CCCC(CNC(=O)c3ccc(F)cc3)C2)ccc1OC (stereo unspecified) | inactive
43 | COC(=O)c1cc(C)nc2c1c(=O)nc(SCc1cc(C)ccc1C)n2C1CC1 | inconclusive: 50.1 µM [inhibitor, single point]
44 | CCCCN(C(=O)NC(=O)C1=C(N2CCOCC2)/C(=C/c2ccccc2)CC1)S(C)(=O)=O | inactive
45 | Nc1nc2ccccc2nc1N | inactive
46 | Cc1ccc(-c2nnc3ccccc3c2C(=O)Nc2ccc(F)cc2)cc1 | inconclusive: 14.1 µM [inhibitor, partial curve]
47 | COc1ccc(C(C)=O)cc1CSc1nc(Nc2ccc(F)c(F)c2)c2ccccc2n1 | inconclusive: 50.1 µM [inhibitor, single point]
48 | Cc1ccccc1-n1c(C)nnc1SCc1nc2ccccc2s1 | inconclusive: 56.2 µM [inhibitor, single point]

Row | SMILES | Potency
49 | Cc1c(CN(C)C)c2c(n1Cc1ccccc1)C(=O)c1ccc(Br)cc1-2 | inconclusive: 35.5 µM [inhibitor, partial curve]
50 | COc1ccc(CCNC(=O)C2CC(=O)N(c3ccccc3)C2)cc1OC (stereo unspecified) | inactive
51 | C=C(C)C1Cc2cc3ccc(=O)oc3cc2O1 (stereo unspecified) | inactive
52 | CC(C)=CCN1CCN(Cc2cccn2-c2nccs2)CC1CCO (stereo unspecified) | inactive
53 | COc1ccc(S(=O)(=O)Nc2cccc(-c3ccc(N4CCCC4)nn3)c2)cc1F | inconclusive: 11.2 µM [inhibitor, single point]
54 | Cn1c(=O)c2cc(S(=O)(=O)NCCC(=O)N3CC=C(c4ccccc4)CC3)ccc2n(C)c1=O | inconclusive: 25.1 µM [inhibitor, partial curve]
55 | Cc1nc(-c2ccc(Cl)cc2)sc1C1(C)CC(c2cccnc2)=NO1 (stereo unspecified) | inconclusive: 31.6 µM [inhibitor, single point]
56 | CCC(CC)c1nnc(NC(=O)C2CC(=O)N(CCc3ccc(F)cc3)C2)s1 (stereo unspecified) | inconclusive: 14.1 µM [inhibitor, partial curve]
57 | CCOC(=O)N1CCC(NC(=O)c2oc3c(F)cccc3c2C)CC1 | inconclusive: 0.794 µM [inhibitor, full curve, poor fit]
58 | O=C(CN1CCCCCC1=O)OCc1ncc(-c2ccccc2)o1 | inconclusive: 39.8 µM [inhibitor, partial curve]
59 | Cn1cc(SCC(=O)Nc2nccs2)c2ccccc21 | inactive
60 | O=C(NCC(c1ccc2c(c1)OCO2)N1CCN(c2ccccc2)CC1)C(=O)Nc1ccccc1F (stereo unspecified) | inactive
61 | CCCCC(=O)Nc1ccc(C)c(O)c1 | inconclusive: 31.6 µM [inhibitor, partial curve]
62 | CCCc1nc(SCC(=O)N2CCc3ccccc3C2)c2ccccc2n1 | inconclusive: 35.5 µM [inhibitor, partial curve]
63 | COc1ccc2cc(C(N)=O)c(=Nc3ccccc3)oc2c1 | inactive
64 | COc1ccccc1Nc1c([N+](=O)[O-])cncc1[N+](=O)[O-] | inconclusive: 39.8 µM [inhibitor, partial curve]
65 | COc1ccc(CCNCc2ccc(OCc3ccccc3)cc2)cc1 | inconclusive: 50.1 µM [inhibitor, single point]
66 | Cc1ccc(-c2nnc(SCc3ccccc3)o2)cc1 | inactive
67 | CN1CCC(=NNC(=O)CSCc2ccccc2)CC1 | inconclusive: 15.8 µM [inhibitor, partial curve]
68 | COc1ccccc1C(=O)NCC(=O)OC(C)C(=O)NC(=O)NC1CCCCC1 (stereo unspecified) | inconclusive: 39.8 µM [inhibitor, partial curve]
69 | C/C(=N\NC(=S)Nc1ccc(F)cc1)c1ccc2c(c1)OCCO2 | inactive
70 | CC(=O)c1cccc(NC(=O)Nc2cnn(Cc3ccc(F)cc3)c2)c1 | inconclusive: 17.8 µM [inhibitor, partial curve]
71 | Cc1cccc(C)c1OCC(=O)N1CCc2ccccc2C1 | inconclusive: 35.5 µM [inhibitor, partial curve]
